# Measurements from the supplement of paper PMC8728848.
# This is one part of the list.
# B1: Gal 1 (Canis lupus) (protein)
# chain: MACGLVASNLSLKPGQCLRVQCEVVPEAKSFVLNLGKDGDNLCLHFNPRFEAHGDVNTIVCNSKDGGAWGEELRESAFPFQPGTVTEVCISFDQADLTIKLPDGYTFKFPNRLNLEAISYLAADGDMKIKCLAFD
# Columns and labels:
# Test in all cases: glycan array binding signal (z-score within array); higher = stronger binding
# Details in all cases: glycan notation: IUPAC condensed, linker removed
# [1] = molecular target: Neu5Ac(a2-3)Gal(b1-4)[Fuc(a1-3)]GlcNAc(b1-3)GalNAc
# How it was run: (§1)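 Negative Z-scores can be read as non-binding. The Z-score is calculated within each array and then averaged across arrays of one protein sequence at different concentrations or buffers and across linkers. Arrays, 3228 in all, were curated from the Consortium for Functional Glycomics database and kept only where the protein sequence was available.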
# [2] = molecular target: Neu5Ac(a2-3)Gal(b1-4)[Fuc(a1-3)]GlcNAc(b1-6)[Gal(b1-3)]GalNAc
# How it was run: as §1
# [3] = molecular target: Neu5Ac(a2-3)Gal(b1-4)[Fuc(a1-3)]GlcNAc(b1-6)[Neu5Ac(a2-3)Gal(b1-3)]GalNAc
# How it was run: as §1
# [4] = molecular target: Neu5Ac(a2-3)Gal(b1-4)[Fuc(a1-3)]GlcNAc6S
# How it was run: as §1
# [5] = molecular target: Neu5Ac(a2-3)Gal6S(b1-4)GlcNAc
# How it was run: as §1
# [6] = molecular target: Neu5Ac(a2-3)Gal6S(b1-4)[Fuc(a1-3)]GlcNAc
# How it was run: as §1
# Neu5Ac(a2-3)GalNAc = molecular target: Neu5Ac(a2-3)GalNAc
# How it was run: as §1
# [7] = molecular target: Neu5Ac(a2-3)GalNAc(b1-4)GlcNAc
# How it was run: as §1
# [8] = molecular target: Neu5Ac(a2-3)[GalNAc(b1-4)]Gal(b1-4)Glc
# How it was run: as §1
# [9] = molecular target: Neu5Ac(a2-3)[GalNAc(b1-4)]Gal(b1-4)GlcNAc
# How it was run: as §1
# [10] = molecular target: Neu5Ac(a2-3)[GalNAc(b1-4)]Gal(b1-4)GlcNAc(b1-3)GalNAc
# How it was run: as §1
# [11] = molecular target: Neu5Ac(a2-3)[Neu5Ac(a2-6)]GalNAc
# How it was run: as §1
# Neu5Ac(a2-6)Gal = molecular target: Neu5Ac(a2-6)Gal
# How it was run: as §1
# Neu5Ac(a2-6)Gal(b1-4)Glc = molecular target: Neu5Ac(a2-6)Gal(b1-4)Glc
# How it was run: as §1
# [12] = molecular target: Neu5Ac(a2-6)Gal(b1-4)GlcNAc
# How it was run: as §1
# [13] = molecular target: Neu5Ac(a2-6)Gal(b1-4)GlcNAc(b1-2)Man(a1-3)Man(b1-4)GlcNAc(b1-4)GlcNAc
# How it was run: as §1
# [14] = molecular target: Neu5Ac(a2-6)Gal(b1-4)GlcNAc(b1-2)Man(a1-3)[Gal(b1-4)GlcNAc(b1-2)Man(a1-6)]Man(b1-4)GlcNAc(b1-4)GlcNAc
# How it was run: as §1
# [15] = molecular target: Neu5Ac(a2-6)Gal(b1-4)GlcNAc(b1-2)Man(a1-3)[GlcNAc(b1-2)Man(a1-6)]Man(b1-4)GlcNAc(b1-4)GlcNAc
# How it was run: as §1
# [16] = molecular target: Neu5Ac(a2-6)Gal(b1-4)GlcNAc(b1-2)Man(a1-3)[GlcNAc(b1-2)Man(b1-4)GlcNAc(b1-2)Man(a1-6)]Man(b1-4)GlcNAc(b1-4)GlcNAc
# How it was run: as §1
# [17] = molecular target: Neu5Ac(a2-6)Gal(b1-4)GlcNAc(b1-2)Man(a1-3)[Man(a1-6)]Man(b1-4)GlcNAc(b1-4)GlcNAc
# How it was run: as §1
# [18] = molecular target: Neu5Ac(a2-6)Gal(b1-4)GlcNAc(b1-2)Man(a1-3)[Neu5Ac(a2-6)Gal(b1-4)GlcNAc(b1-2)Man(a1-6)]Man(b1-4)GlcNAc(b1-4)GlcNAc
# How it was run: as §1
# [19] = molecular target: Neu5Ac(a2-6)Gal(b1-4)GlcNAc(b1-2)Man(a1-6)Man(b1-4)GlcNAc(b1-4)GlcNAc
# How it was run: as §1
# [20] = molecular target: Neu5Ac(a2-6)Gal(b1-4)GlcNAc(b1-2)Man(a1-6)[Gal(b1-4)GlcNAc(b1-2)Man(a1-3)]Man(b1-4)GlcNAc(b1-4)GlcNAc
# How it was run: as §1
# [21] = molecular target: Neu5Ac(a2-6)Gal(b1-4)GlcNAc(b1-2)Man(a1-6)[GlcNAc(b1-2)Man(a1-3)]Man(b1-4)GlcNAc(b1-4)GlcNAc
# How it was run: as §1
# [22] = molecular target: Neu5Ac(a2-6)Gal(b1-4)GlcNAc(b1-2)Man(a1-6)[Man(a1-3)]Man(b1-4)GlcNAc(b1-4)GlcNAc
# How it was run: as §1
# [23] = molecular target: Neu5Ac(a2-6)Gal(b1-4)GlcNAc(b1-3)Gal(b1-3)GlcNAc
# How it was run: as §1
# [24] = molecular target: Neu5Ac(a2-6)Gal(b1-4)GlcNAc(b1-3)Gal(b1-4)GlcNAc
# How it was run: as §1
# [25] = molecular target: Neu5Ac(a2-6)Gal(b1-4)GlcNAc(b1-3)Gal(b1-4)GlcNAc(b1-3)Gal(b1-4)GlcNAc
# How it was run: as §1
# [26] = molecular target: Neu5Ac(a2-6)Gal(b1-4)GlcNAc(b1-3)Gal(b1-4)[Fuc(a1-3)]GlcNAc(b1-3)Gal(b1-4)[Fuc(a1-3)]GlcNAc
# How it was run: as §1
# [27] = molecular target: Neu5Ac(a2-6)Gal(b1-4)GlcNAc(b1-3)GalNAc
# How it was run: as §1
# [28] = molecular target: Neu5Ac(a2-6)Gal(b1-4)GlcNAc6S
# How it was run: as §1
# Neu5Ac(a2-6)GalNAc = molecular target: Neu5Ac(a2-6)GalNAc
# How it was run: as §1
# [29] = molecular target: Neu5Ac(a2-6)GalNAc(b1-4)GlcNAc
# How it was run: as §1
# [30] = molecular target: Neu5Ac(a2-6)GlcNAc(b1-4)GlcNAc
# How it was run: as §1
# [31] = molecular target: Neu5Ac(a2-6)GlcNAc(b1-4)GlcNAc(b1-4)GlcNAc
# How it was run: as §1
# Neu5Ac(a2-8)Neu5Ac = molecular target: Neu5Ac(a2-8)Neu5Ac
# How it was run: as §1
# [32] = molecular target: Neu5Ac(a2-8)Neu5Ac(a2-3)Gal(b1-4)Glc
# How it was run: as §1
# [33] = molecular target: Neu5Ac(a2-8)Neu5Ac(a2-3)[GalNAc(b1-4)]Gal(b1-4)Glc
# How it was run: as §1
# [34] = molecular target: Neu5Ac(a2-8)Neu5Ac(a2-8)Neu5Ac
# How it was run: as §1
# [35] = molecular target: Neu5Ac(a2-8)Neu5Ac(a2-8)Neu5Ac(a2-3)Gal(b1-4)Glc
# How it was run: as §1
# [36] = molecular target: Neu5Ac(a2-8)Neu5Ac(a2-8)Neu5Ac(a2-3)[GalNAc(b1-4)]Gal(b1-4)Glc
# How it was run: as §1
# [37] = molecular target: Neu5Ac(a2-8)Neu5Ac(a2-8)Neu5Ac(a2-8)Neu5Ac(a2-3)[GalNAc(b1-4)]Gal(b1-4)Glc
# How it was run: as §1
# [38] = molecular target: Neu5Ac(b2-6)Gal(b1-4)GlcNAc
# How it was run: as §1
# Neu5Ac(b2-6)GalNAc = molecular target: Neu5Ac(b2-6)GalNAc
# How it was run: as §1
# [39] = molecular target: Neu5Ac9Ac(a2-3)Gal(b1-3)GlcNAc
# How it was run: as §1
# [40] = molecular target: Neu5Ac9Ac(a2-3)Gal(b1-4)GlcNAc
# How it was run: as §1
# [41] = molecular target: Neu5Ac9Ac(a2-6)Gal(b1-4)GlcNAc
# How it was run: as §1
# [42] = molecular target: Neu5Gc(a2-3)Gal(b1-3)GlcNAc
# How it was run: as §1
# [43] = molecular target: Neu5Gc(a2-3)Gal(b1-3)[Fuc(a1-4)]GlcNAc
# How it was run: as §1
# Neu5Gc(a2-3)Gal(b1-4)Glc = molecular target: Neu5Gc(a2-3)Gal(b1-4)Glc
# How it was run: as §1
# [44] = molecular target: Neu5Gc(a2-3)Gal(b1-4)GlcNAc
# How it was run: as §1
# [45] = molecular target: Neu5Gc(a2-3)Gal(b1-4)[Fuc(a1-3)]GlcNAc
# How it was run: as §1
# [46] = molecular target: Neu5Gc(a2-6)Gal(b1-4)GlcNAc
# How it was run: as §1
# Neu5Gc(a2-6)GalNAc = molecular target: Neu5Gc(a2-6)GalNAc
# How it was run: as §1
# [47] = molecular target: Neu5Gc(b2-6)Gal(b1-4)GlcNAc
# How it was run: as §1
binder,measurement,setting,value
B1,glycan array binding signal (z-score),[1],-0.17
same,glycan array binding signal (z-score),[2],-0.244
same,glycan array binding signal (z-score),[3],-0.283
same,glycan array binding signal (z-score),[4],-0.322
same,glycan array binding signal (z-score),[5],-0.313
same,glycan array binding signal (z-score),[6],-0.322
same,glycan array binding signal (z-score),Neu5Ac(a2-3)GalNAc,-0.293
same,glycan array binding signal (z-score),[7],-0.307
same,glycan array binding signal (z-score),[8],-0.292
same,glycan array binding signal (z-score),[9],-0.32
same,glycan array binding signal (z-score),[10],-0.316
same,glycan array binding signal (z-score),[11],-0.261
same,glycan array binding signal (z-score),Neu5Ac(a2-6)Gal,-0.257
same,glycan array binding signal (z-score),Neu5Ac(a2-6)Gal(b1-4)Glc,-0.224
same,glycan array binding signal (z-score),[12],-0.326
same,glycan array binding signal (z-score),[13],-0.311
same,glycan array binding signal (z-score),[14],0.048
same,glycan array binding signal (z-score),[15],-0.293
same,glycan array binding signal (z-score),[16],0.236
same,glycan array binding signal (z-score),[17],-0.306
same,glycan array binding signal (z-score),[18],-0.326
same,glycan array binding signal (z-score),[19],-0.235
same,glycan array binding signal (z-score),[20],0.026
same,glycan array binding signal (z-score),[21],-0.301
same,glycan array binding signal (z-score),[22],-0.292
same,glycan array binding signal (z-score),[23],-0.32
same,glycan array binding signal (z-score),[24],-0.308
same,glycan array binding signal (z-score),[25],-0.309
same,glycan array binding signal (z-score),[26],-0.319
same,glycan array binding signal (z-score),[27],-0.322
same,glycan array binding signal (z-score),[28],-0.332
same,glycan array binding signal (z-score),Neu5Ac(a2-6)GalNAc,-0.344
same,glycan array binding signal (z-score),[29],-0.332
same,glycan array binding signal (z-score),[30],-0.329
same,glycan array binding signal (z-score),[31],-0.319
same,glycan array binding signal (z-score),Neu5Ac(a2-8)Neu5Ac,-0.318
same,glycan array binding signal (z-score),[32],-0.055
same,glycan array binding signal (z-score),[33],-0.332
same,glycan array binding signal (z-score),[34],-0.324
same,glycan array binding signal (z-score),[35],-0.311
same,glycan array binding signal (z-score),[36],-0.32
same,glycan array binding signal (z-score),[37],-0.31
same,glycan array binding signal (z-score),[38],-0.338
same,glycan array binding signal (z-score),Neu5Ac(b2-6)GalNAc,-0.315
same,glycan array binding signal (z-score),[39],0.272
same,glycan array binding signal (z-score),[40],0.093
same,glycan array binding signal (z-score),[41],-0.303
same,glycan array binding signal (z-score),[42],0.64
same,glycan array binding signal (z-score),[43],-0.315
same,glycan array binding signal (z-score),Neu5Gc(a2-3)Gal(b1-4)Glc,-0.296
same,glycan array binding signal (z-score),[44],0.209
same,glycan array binding signal (z-score),[45],-0.321
same,glycan array binding signal (z-score),[46],-0.208
same,glycan array binding signal (z-score),Neu5Gc(a2-6)GalNAc,-0.307
same,glycan array binding signal (z-score),[47],-0.304
